# In all, about 360,000 compounds went through this assay and about 25,000 (6.9%) were called active. This list was built around the results that the source calls inconclusive (neither active nor inactive); the mix of calls is not that of the screen. Calls come from the whole dose curve; as a rule, active = well fitted inhibition curve with a large enough effect; inconclusive = small, poorly fitted or top-dose-only effect; inactive = flat fitted curve, though single readings scatter. A potency beside an inconclusive call is a rough fit, not a confirmed value.
# Biological target: Luciferin 4-monooxygenase (Photinus pyralis) (UniProt P08659)
# Chain of UniProt P08659 (P08659 whole entry, looked up): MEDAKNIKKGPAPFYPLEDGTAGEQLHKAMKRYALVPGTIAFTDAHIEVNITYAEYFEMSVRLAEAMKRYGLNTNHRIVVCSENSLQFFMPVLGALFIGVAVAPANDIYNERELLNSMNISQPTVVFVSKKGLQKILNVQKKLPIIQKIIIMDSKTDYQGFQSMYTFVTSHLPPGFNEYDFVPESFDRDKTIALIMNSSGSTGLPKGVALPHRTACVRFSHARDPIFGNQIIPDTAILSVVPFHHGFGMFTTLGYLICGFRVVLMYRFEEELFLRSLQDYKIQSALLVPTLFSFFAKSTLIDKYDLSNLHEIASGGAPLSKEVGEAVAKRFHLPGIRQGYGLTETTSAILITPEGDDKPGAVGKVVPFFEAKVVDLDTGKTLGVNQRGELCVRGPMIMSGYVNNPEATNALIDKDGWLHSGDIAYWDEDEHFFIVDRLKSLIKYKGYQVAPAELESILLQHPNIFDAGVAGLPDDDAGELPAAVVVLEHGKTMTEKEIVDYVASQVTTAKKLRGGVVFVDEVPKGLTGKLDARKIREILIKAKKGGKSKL
# Assay: qHTS profiling assay for firefly luciferase inhibitor/activator using purifed enzyme and Km concentrations of substrates (counterscreen for miR-21 project); note: nearly all actives have a fitted effect of over 55% in size
# Settings: purified FLuc, luminescence inhibition; series mostly up to 57.5 µM
# In short: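 Biochemical qHTS of compounds, final roughly 60 µM downward over six points, against 10 nM purified firefly luciferase using Km concentrations of substrates (10 uM D-luciferin, 10 uM ATP) in Tris acetate pH 7.5 buffer; luminescence output.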
# Potency is the fitted concentration of half-maximal effect; tags give direction and shape of the fitted curve.
row,SMILES,Potency
1,Fc1ccc(-c2csc(-c3cccnc3)n2)cc1F,"inconclusive: 15.1 µM [inhibitor, partial curve]"
2,COc1ccc(N=Nc2c(N)n[nH]c2N)cc1,"inconclusive: 19 µM [inhibitor, partial curve]"
3,Cn1c(Cc2nc(-c3cnccn3)no2)nnc1SCC(=O)Nc1ccccc1,inactive
4,Cc1sc2c(c1C)CN(C(C)(C)C)CN2C(=O)c1ccccc1,"inconclusive: 12 µM [inhibitor, partial curve]"
5,O=C(Nc1ccc2c(c1)OCO2)c1cc(-c2cccnc2)nc2ccccc12,"inconclusive: 37.9 µM [inhibitor, single point]"
6,Cn1c(=O)c2c(-c3ccccc3)n(CCCO)cc2n(C)c1=O,inactive
7,COc1ccc(NC(=O)Cn2cc(C(=O)c3ccccc3OC)c(=O)c3ccc(C)nc32)cc1OC,inactive
8,O=C(Nc1ccccc1N1CCCC1)c1cccc(-c2cc3ccccc3oc2=O)c1,"inconclusive: 19 µM [inhibitor, partial curve, poor fit]"
9,CCCc1nnc(NC(=O)Nc2ccccc2Cl)s1,"inconclusive: 5.36 µM [inhibitor, partial curve, poor fit]"
10,Cc1ccc(OCc2cc(C(=O)NC3CCc4ccccc43)no2)cn1 (centres undefined),inactive
11,CCOC(=O)N/N=C/c1ccc(F)cc1,"inconclusive: 19 µM [inhibitor, partial curve, poor fit]"
12,CN(C)/C=C1\N=C(c2ccc(Cl)cc2Cl)OC1=O,"inconclusive: 6.75 µM [inhibitor, full curve]"
13,CCCN1CCN(C(=O)c2cc3c(s2)-c2ccccc2S(=O)(=O)C3)CC1,"inconclusive: 16.9 µM [inhibitor, partial curve]"
14,Cc1nn(C(=O)c2c(F)cccc2F)c(C)c1S(=O)(=O)N1CCCCCC1,inactive
15,COc1ccc(NC(=O)CSc2nnc(-c3ccco3)c(-c3ccco3)n2)cc1OC,"inconclusive: 26.9 µM [inhibitor, partial curve, poor fit]"
16,S=C(c1ccc(-c2ccccc2Cl)o1)N1CCOCC1,active: 10.7 µM
17,O=C(Nc1cccs1)Nc1ccc(Br)cc1F,active: 12 µM
18,CCN(CC)c1ccc(C=Nc2ccc(C)cc2C)c(O)c1,active: 3.38 µM
19,CCOc1ccc(OCc2ccc(C(=O)Nc3cccnc3)o2)cc1,"inconclusive: 21.3 µM [inhibitor, partial curve]"
20,COc1cccc(COC(=O)c2c(C)nn(-c3ccccc3)c2Cl)c1OC,inactive
21,Clc1ccccc1CSc1nc2ccncc2[nH]1,active: 15.1 µM
22,O=C(Cc1ccccc1[N+](=O)[O-])NCc1ccccc1Cl,active: 7.57 µM
23,CCC(Sc1nc2ccccc2o1)C(=O)O (centres undefined),"inconclusive: 37.9 µM [inhibitor, partial curve, poor fit]"
24,Cc1ccc(NC(=O)CSc2nc3ccccc3nc2N2CCOCC2)cc1,inactive
25,Cc1ccc(-c2cc(C(=O)N/N=C/C(Br)=C/c3ccccc3)n[nH]2)o1,active: 23.9 µM

row,SMILES,Potency
1,Cc1cccc(C)c1N1CCN(c2cc(Cl)nc(N)n2)CC1,inactive
2,O=S(=O)(c1ccc(Cl)cc1)N1CCn2c1nc1ccccc12,inactive
3,C/C(=N\NC(=O)Cc1ccccc1[N+](=O)[O-])c1cccnc1,active: 15.1 µM
4,CC(=O)c1c(C)[nH]c(C(=O)OCC(=O)Nc2cccc(S(=O)(=O)N3CCCC3)c2)c1C,inactive
5,CC(NC(=O)c1ccc(NC2=NC3CS(=O)(=O)CC3S2)cc1)c1ccccc1 (centres undefined),inactive
6,COc1ccc(C(=O)n2c(N)nc3ccccc32)cc1OC,active: 19 µM
7,CC[N+]1(CC)CC2=Cc3ccccc3CC2C1 (centres undefined),inactive
8,Cn1c(CN2CCOCC2)nnc1SCc1cccc(F)c1,inactive
9,CCCc1nc(SCc2cc(=O)c3ccc(C)c(C)c3[nH]2)n[nH]1,inactive
10,O=C(NCc1cccs1)c1cc(-c2ccccc2)nc2ccccc12,"inconclusive: 9.53 µM [inhibitor, partial curve, poor fit]"
11,CCOC(=O)c1c(C)nc(C(Cl)(Cl)Cl)nc1N,"inconclusive: 42.6 µM [inhibitor, partial curve, poor fit]"
12,CCC(C(=O)NCCc1ccccc1)n1nc(C)n2c(cc3sccc32)c1=O (centres undefined),inactive
13,CCn1c(NCc2cccc(OC)c2OC)nc2ccccc21,"inconclusive: 23.9 µM [inhibitor, single point]"
14,COc1ccc(-c2nc(CS(=O)CC(=O)N3CCc4ccccc4C3)c(C)o2)cc1 (centres undefined),"inconclusive: 30.1 µM [inhibitor, partial curve, poor fit]"
15,CCOc1ccc(-c2nc(CSCC(=O)NCc3ccc(Cl)cc3)c(C)o2)cc1,"inconclusive: 23.9 µM [inhibitor, partial curve]"
16,COc1cccc(C(=O)Nc2cccc(C(=O)NCC(C)C)c2)c1,"inconclusive: 19 µM [inhibitor, single point]"
17,COc1ccc(-c2ccc3nnc(SCC(=O)Nc4ccc(NC(C)=O)cc4)n3n2)cc1,"inconclusive: 5.36 µM [inhibitor, partial curve]"
18,COc1ccc(-c2csc(N(C)C(=O)c3ccco3)n2)cc1,active: 10.7 µM
19,CCn1c(SCC(=O)Nc2cccc(NC(=O)c3ccco3)c2)nnc1-c1cccs1,"inconclusive: 21.3 µM [inhibitor, single point]"
20,Cc1ccc(-c2nnc(Nc3ccc(CC(N)=O)cc3)c3ccccc23)cc1S(=O)(=O)NCC1CCCO1 (centres undefined),"inconclusive: 23.9 µM [inhibitor, single point]"
21,Oc1ccc(Nc2nc(-c3ccccc3O)nc3ccccc23)cc1,"inconclusive: 37.9 µM [inhibitor, single point]"
22,O=C(/C=C/c1ccccc1)Nc1sc2c(c1C(=O)O)CCC2,active: 16.9 µM
23,C/C(=N\Nc1ccc(Cl)c(C(=O)O)c1)c1cccc([N+](=O)[O-])c1,active: 19 µM
24,CC1(C)Cc2c(cnn2-c2cccc(F)c2)C(NC(=O)CCc2cnccn2)C1 (centres undefined),inactive
25,CCN1C(C(=O)c2ccccc2)=C(OC(=O)c2ccccc2OC)c2ccccc2S1(=O)=O,inactive

row,SMILES,Potency
1,O=C(Nc1ccc(N2CCOCC2)cc1)c1cccnc1,"inconclusive: 23.9 µM [inhibitor, single point]"
2,COc1ccc(COC(=O)c2sc3nc4n(c(=O)c3c2C)CCC4)cc1,"inconclusive: 26.9 µM [inhibitor, single point]"
3,O=C(N/N=C/c1cc(Br)cs1)c1ccc2c(c1)OCCO2,active: 1.35 µM
4,Oc1ccccc1-c1nc(/C=C/c2ccc(F)cc2)nn1-c1ccccc1,"inconclusive: 12 µM [inhibitor, partial curve, poor fit]"
5,CCC1=C(OC(=O)N(CC)CC)N2C(=O)OC(=NCC(=O)OC)[C@]2(Cc2ccccc2)[C@H]2C1=CC[C@H]1C(=O)N(C)C(=O)[C@H]12,inactive
6,COc1cccc(C=Nc2ccc(C)c(F)c2)c1O,"inconclusive: 37.9 µM [inhibitor, partial curve, poor fit]"
7,O=C(Oc1ccc(C(=S)N2CCOCC2)cc1)c1ccccc1[N+](=O)[O-],"inconclusive: 21.3 µM [inhibitor, partial curve, poor fit]"
8,COc1cccc(/C=C/C(=O)Nc2ccc3nc(N4CCN(C)CC4)cc(C)c3c2)c1OC,"inconclusive: 21.3 µM [inhibitor, partial curve]"
9,Cc1ccc2c(c1C)NC(=O)C21N2CCCC2C(C(=O)c2ccc3ccccc3c2)C12C(=O)Nc1ccccc12 (centres undefined),active: 9.53 µM
10,CCOc1ccc(NC(=O)CSc2ncc3c(n2)-c2ccccc2N(Cc2ccccc2C)S3(=O)=O)cc1,inactive
11,CC(=O)n1nc(-c2cccc(C)c2)nc1SCC(=O)Nc1ccccc1,"inconclusive: 19 µM [inhibitor, partial curve, poor fit]"
12,Cc1ccc(OCC(=O)Nc2cc(NC(=O)COc3ccc(C)c(C)c3)cc(C(=O)O)c2)cc1C,"inconclusive: 23.9 µM [inhibitor, single point]"
13,COc1ccc(-c2cc(=O)oc3cc(OCC(=O)N[C@@H](Cc4c[nH]c5ccccc45)C(=O)O)ccc23)cc1,"inconclusive: 23.9 µM [inhibitor, partial curve, poor fit]"
14,COC(=O)c1ccc(COc2ccc(C(C)(C)C)cc2)o1,active: 16.9 µM
15,COc1cc(SC)ccc1C(=O)Nc1cccc(C)n1,active: 3.38 µM
16,C/C(=C\C(=O)c1ccc(Br)cc1)N1CCCCC1,active: 15.1 µM
17,COc1ccc(OCc2nnc(SCC(=O)c3ccccc3)o2)cc1,"inconclusive: 33.8 µM [inhibitor, partial curve, poor fit]"
18,O=C(CN1C(=O)c2cccnc2C1=O)c1ccccc1,"inconclusive: 26.9 µM [inhibitor, partial curve]"
19,CCOC(=O)C1CCCN(c2cc(C)nc3cc(-c4ccc(F)cc4)nn23)C1 (centres undefined),"inconclusive: 21.3 µM [inhibitor, partial curve]"
20,CCNc1nc(NCC)nc(OCCNS(=O)(=O)c2cc(C)ccc2C)n1,inactive
21,Cc1nn(CCCC(=O)N2CCN(c3ccc(F)cc3)CC2)c(C)c1[N+](=O)[O-],inactive
22,COC(=O)c1cccc(-n2c(CCC(=O)O)ccc2-c2cccs2)c1,"inconclusive: 30.1 µM [inhibitor, partial curve, poor fit]"
23,COc1ccc2cc(C(=O)C3CCCN(C(=O)CCc4ccccn4)C3)ccc2c1 (centres undefined),"inconclusive: 26.9 µM [inhibitor, single point]"
24,CC1(C)CC(=O)C(C(C2=C(O)CC(C)(C)CC2=O)c2ccc(Br)s2)C(=O)C1 (centres undefined),"inconclusive: 15.1 µM [inhibitor, partial curve]"

# — PubChem BioAssay AID588342 (National Center for Advancing Translational Sciences (NCATS), 2011)
